Results from publication PMC4336329 (PLoS ONE, 2015).
About 2,200 (0.71%) of roughly 310,000 compounds showed an effect of 50% or more. Effects have a minus sign here. The list shows a part of the results.

These compounds were tested against human ether-à-go-go-related gene (hERG) potassium channel (human, UniProt Q12809) (assay: primary screen, population patch clamp on CHO cells stably expressing hERG).
Sequence of human ether-à-go-go-related gene (hERG) potassium channel (Q12809 whole entry, looked up): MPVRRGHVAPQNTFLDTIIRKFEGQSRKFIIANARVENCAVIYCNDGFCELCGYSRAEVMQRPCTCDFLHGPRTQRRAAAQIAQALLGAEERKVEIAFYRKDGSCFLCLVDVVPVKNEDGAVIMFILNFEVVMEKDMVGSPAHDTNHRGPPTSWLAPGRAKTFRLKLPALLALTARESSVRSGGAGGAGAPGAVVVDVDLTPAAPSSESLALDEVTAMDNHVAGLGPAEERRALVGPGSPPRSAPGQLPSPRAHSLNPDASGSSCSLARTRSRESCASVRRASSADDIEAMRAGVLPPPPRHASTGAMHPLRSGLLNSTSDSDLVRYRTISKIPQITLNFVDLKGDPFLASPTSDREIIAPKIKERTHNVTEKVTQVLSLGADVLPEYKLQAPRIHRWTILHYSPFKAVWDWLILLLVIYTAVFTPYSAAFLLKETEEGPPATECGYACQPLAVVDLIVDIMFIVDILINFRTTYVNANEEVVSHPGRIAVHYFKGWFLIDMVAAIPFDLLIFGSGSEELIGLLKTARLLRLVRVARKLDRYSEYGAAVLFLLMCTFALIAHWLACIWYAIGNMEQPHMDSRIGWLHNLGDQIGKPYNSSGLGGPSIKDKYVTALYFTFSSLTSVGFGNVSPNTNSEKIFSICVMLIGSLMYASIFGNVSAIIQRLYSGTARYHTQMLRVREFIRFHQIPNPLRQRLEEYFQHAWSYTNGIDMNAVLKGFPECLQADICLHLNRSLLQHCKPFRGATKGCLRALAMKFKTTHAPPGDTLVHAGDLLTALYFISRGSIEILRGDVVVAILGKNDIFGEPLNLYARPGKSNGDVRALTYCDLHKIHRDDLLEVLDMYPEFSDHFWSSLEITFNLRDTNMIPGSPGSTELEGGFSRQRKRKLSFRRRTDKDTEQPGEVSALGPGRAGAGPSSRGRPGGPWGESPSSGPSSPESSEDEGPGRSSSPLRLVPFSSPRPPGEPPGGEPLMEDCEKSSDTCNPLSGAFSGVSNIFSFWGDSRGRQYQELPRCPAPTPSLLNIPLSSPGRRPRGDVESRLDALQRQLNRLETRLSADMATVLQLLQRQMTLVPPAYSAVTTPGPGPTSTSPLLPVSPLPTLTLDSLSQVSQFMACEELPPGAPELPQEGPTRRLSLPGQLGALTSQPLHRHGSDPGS

Row | SMILES | hERG current change (%, negative = inhibition) at 1uM [%]
1 | CC[C@H](C)[C@H](NC(=O)c1ccccc1)C(=O)NC(CC(=O)O)c1ccc(F)cc1 (stereo partly shown) | 11.4
2 | CCn1c2ccccc2c2cc(NC(=O)COC(=O)c3ccccc3Br)ccc21 | 11.9
3 | Cc1ccc(CCNC(=O)CN2C(=O)COc3ccc(S(=O)(=O)N4CCOCC4)cc32)cc1 | 0.0514
4 | Nc1c2c(nc3ccccc13)CCC2.O=C(O)/C=C/C(=O)O | -1.77
5 | FC(F)Sc1nc(-c2ccccc2)c(-c2ccccc2)n1C(F)F | 6.49
6 | CCN1C(=O)N[C@@H](c2ccccc2)C(C(=O)OC)=C1C | 12.2
7 | Cc1ccc(/C=N/NC(=O)CSc2nc3nc(C)cc(C)n3n2)cc1 | 4.52
8 | Cc1ccc(-n2c(COc3c(C)cccc3C)nnc2SCC(=O)Nc2nccs2)cc1 | -6.54
9 | O=C(O)c1cc(S(=O)(=O)NCC2CCCO2)ccc1Cl (stereo not shown) | -3.7
10 | Cn1nnnc1SCC(=O)c1ccco1 | 13.3
11 | Cc1nn(CC(=O)Nc2ccc(Br)cc2F)c(=O)c2cccn12 | -5.25
12 | Cc1cccc(OCCN2C(=O)C(=O)c3cccc(C)c32)c1 | 15.2
13 | CCOC(=O)c1cn(-c2ccccc2CO)c2c(F)c(F)c(F)cc2c1=O | 12.2
14 | CCCCCC(=O)NCC(C)NC(=O)CCCCC (stereo not shown) | 8.44
15 | COc1ccc(NC(=O)Cc2ccc(C)cc2)c([N+](=O)[O-])c1 | 3.81
16 | CC(=O)c1ccc(NC(=O)/C(=C\c2cccs2)NC(=O)c2ccco2)cc1 | 16.8
17 | COC(=O)C(NNc1ccccc1)(NC(=O)c1ccccc1F)C(F)(F)F (stereo not shown) | 6.01
18 | Nc1cc(=O)nc(SCC(=O)Nc2ccccc2Cl)n1-c1ccccc1 | 10.8
19 | COc1ccc(Cl)cc1N(CC(=O)N/N=C/c1ccc(OCC(N)=O)cc1)S(C)(=O)=O | 8.49
20 | CCCn1c(C2CCCN2c2nc(-c3ccc(C)cc3)cs2)nc2ccccc21 (stereo not shown) | 8.33
21 | Cc1cccc(Nc2nc(N)c([N+](=O)[O-])c(N3CCCC(C)C3)n2)c1 (stereo not shown) | 10.2
22 | FC(F)(F)c1ccccc1Nc1nccs1 | 7.41

Row | SMILES | hERG current change (%, negative = inhibition) at 1uM [%]
23 | Cc1ccc(/C=C/c2nc3ccccc3c(=O)[nH]2)cc1 | 10.4
24 | FC(F)(F)c1cccc(-n2cc(-c3ccccc3)[nH]c2=S)c1 | 12
25 | Cc1ccc(NC(=O)OCCNC(=O)c2ccncc2)cc1 | 11.4
26 | COc1c[nH]n(-c2ccccc2)c(=O)c1=O | 11.8
27 | Cc1nn(Cc2ccccc2)c(C)c1NC(=O)CSc1nc2sc3c(c2c(=O)n1C)CCC3 | 8.38
28 | CCn1c(SCc2cc(=O)[nH]c3ccccc23)nc2c1c(=O)n(C)c(=O)n2C | -4.73
29 | C=CCNc1nc(-c2ccccc2)c(C(=O)OCC)cc1C#N | 6.21
30 | COc1ccc(C(=O)NCC(=O)N2CCN(c3ccc(F)cc3)CC2)cc1 | 15.8
31 | CCOC(=O)C(C)Sc1nc2c(c(=O)[nH]c(=O)n2C)n1CCc1ccccc1 (stereo not shown) | -5.6
32 | O=C(CN1C(=O)NC2(CCCC2)C1=O)Nc1ccccc1-c1ccccc1 | 4.55
33 | Cc1c(NC(=O)c2cc(-c3ccc(Br)cc3)on2)c(=O)n(-c2ccccc2)n1C | 13.5
34 | COc1cc(OC)c(NC(=O)CCc2ccccc2)cc1Cl | 13.4
35 | O=C(O)CCc1c(C(=O)O)[nH]c2ccccc12 | 7.56
36 | O=C(NCCc1c[nH]c2ccccc12)c1cccc(S(=O)(=O)Nc2ccccc2Cl)c1 | 19.1
37 | Cc1cc(C)n(C(=O)CSc2ccc(Cl)cc2)n1 | 5.57
38 | CCC(Br)C(=O)Nc1ccc(OC)cc1 (stereo not shown) | 13.6
39 | O=C(Cc1ccccn1)c1ccccc1 | 23.3
40 | COCCCNC(=O)Cn1nc(-c2cccc(OC)c2)ccc1=O | 15.8
41 | Cc1nn(CCC(=O)NNC(=S)NCC(C)C)c(C)c1Br | 7.17
42 | O=C(O)CCN1C(=O)/C(=C2\C(=O)N(Cc3ccccc3Cl)c3ccccc32)SC1=S | 14.4
43 | CCn1c(Cc2ccccc2)nnc1SCC(=O)Nc1nc2ccccc2s1 | 1.04
44 | Cn1c(Sc2ccc([N+](=O)[O-])cc2C(F)(F)F)nnc1-c1ccccc1 | -7.61

Row | SMILES | hERG current change (%, negative = inhibition) at 1uM [%]
45 | COc1ccccc1N1CCN(S(=O)(=O)c2ccc3c(c2)NC(=O)C(C)S3)CC1 (stereo not shown) | 12.2
46 | C#CCOCCOCCOCCNc1nc(N2CCOCC2)nc(N2CCN(C(=O)[C@H](CCCCN)n3cc([C@@H](N)CO)nn3)CC2)n1.Cl | 7.38
47 | Cc1onc(-c2ccccc2)c1C(=O)OCC(=O)Nc1ccc(OC(F)(F)F)cc1 | 8.73
48 | Cc1csc(NC(=O)c2ccc(Br)s2)n1 | 11.1
49 | Cc1ccccc1-c1nnc(SCC(=O)Nc2ccc3c(c2)OCCO3)n1N | 4.62
50 | COCCn1c(SCC(=O)Nc2ccc(Cl)c(S(=O)(=O)N(C)C)c2)nc2ccccc21 | 5.28
51 | CC[C@@]12C(=O)N(c3cccc(F)c3)C(=O)N1[C@H](c1ccc(OC)cc1)[C@@H]1C(=O)N(C(C)(C)C)C(=O)[C@@H]12 | 7.07
52 | Cc1ccc2c(c1)C1CN(C)CCC1N2C(=O)c1ccccc1NS(=O)(=O)c1ccc(F)cc1 (stereo not shown) | 11.8
53 | CN(Cc1ccccc1)C(=S)NC(=O)C1CCCCC1 | 13.5
54 | O=C(COC(=O)C1CCN(S(=O)(=O)c2cc([N+](=O)[O-])ccc2Cl)CC1)Nc1ncc(Cl)cc1Cl | -6.05
55 | OCCC1CN(Cc2cn[nH]c2C2CCCCC2)CCN1C1CCCC1 (stereo not shown) | 6.76
56 | COc1ccc(-c2cc(C(F)F)n3ncc(C(=O)Nc4cnn(Cc5ccccc5)c4)c3n2)cc1 | 10
57 | COc1ccc(C)cc1-n1c(SCC(=O)Nc2cc(C)on2)nc2ccccc2c1=O | 12
58 | O=C(c1cc2nc(C3CC3)cc(C(F)(F)F)n2n1)N1CCCC1 | 6.6
59 | CCN(CC(=O)Nc1c(F)cccc1F)C(=O)CN1C(=O)c2ccccc2C1=O | 8.45
60 | COc1ccccc1C1C=C(c2ccccc2)Nc2nnnn21 (stereo not shown) | 10.5
61 | O=C(CN(Cc1ccccc1)C(=O)CCC(=O)Nc1ccccn1)NCc1ccc(F)cc1 | 14.9
62 | CC(C)[C@H](NC(=O)OCc1ccccc1)C(=O)OCC(=O)N1CCN(c2ccc(F)cc2)CC1 | -10.1
63 | COc1ccc(-c2ncc(CN3CCN(CCC(C)C)C(CCO)C3)cn2)cc1 (stereo not shown) | -10.2
64 | COc1ccc(CCOC(=O)c2ccc(N)c([N+](=O)[O-])c2)cc1 | 20.6
65 | C[C@H](CO)NC(=O)[C@H](C)[C@H]1C[C@]1(C)[C@H](NC(=O)OCc1ccccc1)c1ccccc1 | 4.64
66 | C#CCOCCOCCOCCNc1nc(N2CCN(C(=O)CCCCCCCCCCNC(=O)[C@H]([C@@H](C)CC)n3cc(CCCCN=C(N)N)nn3)CC2)nc(N2CCN(C(=O)CCCCCCCCCCNC(=O)[C@H](CO)n3cc(CCCSC)nn3)CC2)n1 | 15.9

Row | SMILES | hERG current change (%, negative = inhibition) at 1uM [%]
67 | O=C(Nc1ccc(CSc2ccccc2)cc1)c1ccccc1 | 14.2
68 | COC(=O)C1=C(C)NC(=O)NC1C1CC=CCC1 (stereo not shown) | 10.7
69 | CCCN1CCC(=O)N([C@H](CSc2ccc(C)cc2)c2ccccc2)CC1 | -76.3
70 | COc1ccc(-n2cnc3cc(NCc4ccccn4)ccc32)cc1 | -4.42
71 | C=C1C[C@@H]2[C@H](CC[C@]3(C)C(=O)CC[C@@H]23)[C@@]2(C)C=CC(=O)C=C12 | 6.42
72 | Cc1cc(C(C)(C)C)ccc1OCCN1CCCC1 | -18.7
73 | C(=N/n1c2ccccc2c2ccccc21)/c1ccco1 | 18.4
74 | Cl.O=c1[nH]c(CN2CCCCC2)nc2ccccc12 | 11.6
75 | CN(C)c1nc2n(c(=O)n1)CCS2 | 24.5
76 | CCc1noc(C)c1C(=O)N1CCN(S(=O)(=O)c2ccc(C)cc2C)CC1 | -9.18
77 | COc1ccc(NC(=O)CN2C(=O)CSC2=O)cc1 | 5.54
78 | Cc1ccc(-c2nc3ccccn3c2Nc2ccccc2)o1 | 5.67
79 | O=C(N/N=C/c1cccnc1)c1cc2c(ccc3ccccc32)o1 | 14.6
80 | COc1ccc(Cl)cc1N=Cc1c(O)n(C)c(=O)n(C)c1=O | 8.58
81 | N#Cc1c(C(F)(F)F)cc(-c2cccs2)nc1SC(C(=O)O)c1ccccc1 (stereo not shown) | 12
82 | CCSc1nc2c(c(=O)[nH]1)C(c1cccnc1)C(C(=O)OC(C)C)=C(C)N2 (stereo not shown) | 2.8
83 | O=C(Nc1ccc(S(=O)(=O)N2CCCC2)cc1)C1CCCN1C(=O)c1cccs1 (stereo not shown) | 7.18
84 | Cc1ccc(NC(=S)NNC(=O)c2cccc([N+](=O)[O-])c2)cc1Cl | 9.98
85 | COC(=O)CCCC1=CC2=CC(=O)C(C)(OC(=O)c3cccs3)C(=O)C2=CN1CCCOC(C)C (stereo not shown) | -0.424
